Laboratory results as given in the GPR68 mutational scans of Howard et al. (2025).
Scores with a large standard error are left out. Two further conditions of the source, in which the scores hardly spread, are not listed. Names with del lack the residues named; names with ins carry added residues between the positions named. For part of these data: The concentration of ogerin is not given here.

B1: GPR68, Q15743 (parent)
chain: MGNITADNSSMSCTIDHTIHQTLAPVVYVTVLVVGFPANCLSLYFGYLQIKARNELGVYLCNLTVADLFYICSLPFWLQYVLQHDNWSHGDLSCQVCGILLYENIYISVGFLCCISVDRYLAVAHPFRFHQFRTLKAAVGVSVVIWAKELLTSIYFLMHEEVIEDENQHRVCFEHYPIQAWQRAINYYRFLVGFLFPICLLLASYQGILRAVRRSHGTQKSRKDQIQRLVLSTVVIFLACFLPYHVLLLVRSVWEASCDFAKGVFNAYHFSLLLTSFNCVADPVLYCFVSETTHRDLARLRGACLAFLTCSRTGRAREAYPLGAPEASGKSGAQGEEPELLTKLHPAFQTPNSPGSGGFPTGRLA

What was measured:
[1] = variants of: B1; assay: cAMP reporter score (Enrich2 score, wild type = 0); higher = more signal; HEK293T, FACS bins
[2] = variants of: B1; assay: surface expression score (Enrich2 score, wild type = 0); higher = more signal; HEK293T, FACS bins

Row | Variant | cAMP reporter score ([1]; pH 5.5) | cAMP reporter score ([1]; pH 6) | cAMP reporter score ([1]; pH 6, modulator: ogerin) | surface expression score [2] | cAMP reporter score ([1]; pH 6.5, modulator: ogerin)
1 | H159D | -0.669 | -1.32 | -2.21 | -0.431 | –
2 | H159E | 0.108 | -0.9 | -1.23 | 0.334 | -0.667
3 | H159F | -0.102 | -0.355 | -0.258 | -0.994 | 0.021
4 | H159G | -0.632 | -1.05 | – | 0.335 | -2.19
5 | H159K | 0.545 | 0.37 | -0.173 | 0.398 | -0.678
6 | H159L | -0.363 | 0.033 | -0.934 | -1.02 | -1.33
7 | H159M | -0.78 | -1.45 | -1.14 | -0.224 | -1.59
8 | H159N | 1.3 | -0.058 | 0.765 | 0.676 | -0.61
9 | H159Q | 0.5 | 0.383 | -0.84 | 1.29 | -1.27
10 | H159R | -0.322 | -0.605 | -1.23 | -0.294 | -0.42
11 | H159S | 0.346 | -0.365 | -1.09 | 0.937 | -0.567
12 | H159T | 0.335 | -0.91 | -0.776 | -0.111 | -1.81
13 | H159V | -0.901 | -0.711 | -0.573 | -0.834 | -1.17
14 | H159W | 1.66 | 0.495 | 0.395 | -1.01 | 0.252
15 | H159Y | -0.654 | -0.377 | -0.609 | -0.489 | -0.65
16 | H159_E160insGSG | -1.05 | -1.04 | -1.04 | 0.202 | -1.24
17 | E160A | -0.398 | – | – | – | –
18 | E160C | 0.004 | 0.913 | -0.342 | -0.798 | 0.795
19 | E160D | 0.189 | 1.18 | 0.974 | 0.068 | 2.76
20 | E160F | -0.592 | -0.618 | -0.839 | -0.06 | 2.34
21 | E160G | 1.3 | 4.57 | 2.18 | -0.106 | 4.33
22 | E160H | -0.087 | – | 1.02 | 0.925 | 1.96

Row | Variant | cAMP reporter score ([1]; pH 5.5) | cAMP reporter score ([1]; pH 6) | cAMP reporter score ([1]; pH 6, modulator: ogerin) | surface expression score [2] | cAMP reporter score ([1]; pH 6.5, modulator: ogerin)
23 | E160K | 1.14 | 0.232 | 1.31 | 1.79 | -0.044
24 | E160L | -0.423 | – | -0.629 | – | –
25 | E160Q | 0.981 | – | 1.87 | 1.54 | 4.01
26 | E160R | 1.33 | 0.581 | 0.981 | 3 | 0.453
27 | E160S | 0.778 | 3.67 | 0.91 | 1.04 | 2.58
28 | E160T | 0.598 | – | 0.758 | 2.62 | 3.82
29 | E160W | -0.819 | -1.23 | -0.464 | 1.47 | 0.391
30 | E160Y | -1.31 | 0.916 | 0.176 | 0.697 | –
31 | E160_E161insG | -1.14 | – | -1.51 | -0.69 | -1.03
32 | E160_V162del | -1.08 | -1.23 | -1.63 | 1.64 | -0.99
33 | E160del | 0.336 | -0.648 | 1 | 1.2 | -0.022
34 | E161A | 0.555 | 3.66 | 0.6 | 0.87 | –
35 | E161C | -1.73 | 2.52 | -0.088 | -1.54 | 1.74
36 | E161D | 0.247 | -0.608 | -0.328 | 0.284 | -0.969
37 | E161F | -1.32 | -1.23 | – | -0.605 | -0.232
38 | E161G | 0.605 | – | 1 | 0.31 | 4.18
39 | E161H | 0.144 | -0.379 | 0.2 | 0.685 | -1.09
40 | E161I | -0.369 | -1.05 | -0.656 | -0.262 | -0.994
41 | E161K | -0.349 | -1.11 | 1.01 | 1.14 | -0.961
42 | E161L | -0.581 | 1 | 0.833 | 1.67 | –
43 | E161M | 0.414 | 3.52 | – | 1.26 | –
44 | E161N | -0.281 | 3.34 | -0.006 | – | –

Row | Variant | cAMP reporter score ([1]; pH 5.5) | cAMP reporter score ([1]; pH 6) | cAMP reporter score ([1]; pH 6, modulator: ogerin) | surface expression score [2] | cAMP reporter score ([1]; pH 6.5, modulator: ogerin)
45 | E161P | 0.725 | 2.73 | 0.575 | 0.138 | 2.24
46 | E161Q | -0.646 | 1.12 | 1.03 | – | 2.7
47 | E161R | 0.217 | -0.013 | 0.157 | 1.41 | -0.1
48 | E161S | -0.233 | 4.95 | 0.82 | 0.038 | 2.69
49 | E161Y | -0.162 | -0.19 | -0.1 | 2 | -0.637
50 | E161_V162insGS | 0.282 | -0.1 | -0.155 | 0.075 | -0.724
51 | I163_D165del | -1.46 | -0.761 | -1.69 | 0.699 | -1.03
52 | I163_E164insGSG | -1.75 | -1.68 | -0.153 | 0.585 | -0.142
53 | E164A | 1.87 | 0.027 | 1.59 | 2.4 | 1.24
54 | E164C | 0.616 | -0.728 | -0.382 | -0.953 | -0.371
55 | E164D | -0.595 | -0.64 | -1.2 | -0.47 | -1.11
56 | E164F | -0.262 | -0.43 | 0.29 | 0.122 | -0.519
57 | E164G | -0.486 | -0.034 | – | – | –
58 | E164H | 0.786 | -0.17 | 0.579 | 0.928 | 0.564
59 | E164I | 1.48 | – | – | – | –
60 | E164K | 0.407 | -0.035 | 0.207 | 0.82 | -0.013
61 | E164L | 0.694 | 2.34 | 1.26 | 0.476 | 2.06
62 | E164N | -0.923 | -0.668 | -0.751 | 1.66 | -0.585
63 | E164P | 1.66 | -0.619 | 2.01 | 1.89 | –
64 | E164Q | 1.07 | -0.131 | 1.01 | 1.28 | -0.573
65 | E164R | 0.154 | -0.493 | -0.631 | 0.987 | -0.447
